Measurements: PubChem BioAssay AID504332 (National Center for Advancing Translational Sciences (NCATS), 2011)
About 31,000 (8.9%) of roughly 350,000 compounds were called active. Inconclusive means that the source gave no clear call. Such entries were picked first, then a sample of the others. Calls come from the whole dose curve; as a rule, active = well fitted inhibition curve with a large enough effect; inconclusive = small, poorly fitted or top-dose-only effect; inactive = no such curve, though single readings can be large or run the other way. Potencies of inconclusive entries are doubtful fits and often do not repeat. Some structures have more than one record in an assay (separate samples or runs), and their calls can disagree.

molecular target: Histone-lysine N-methyltransferase EHMT2 (Homo sapiens) (UniProt Q96KQ7); assay: qHTS Assay for Inhibitors of Histone Lysine Methyltransferase G9a; conditions: G9a H3K9 monomethylation, AlphaScreen, 2 h; activity, negative = inhibition: at 59 µM (top of the series) unless noted; note: nearly all actives have a fitted effect of over 75% in size
Chain of UniProt Q96KQ7 (Q96KQ7 whole entry, looked up): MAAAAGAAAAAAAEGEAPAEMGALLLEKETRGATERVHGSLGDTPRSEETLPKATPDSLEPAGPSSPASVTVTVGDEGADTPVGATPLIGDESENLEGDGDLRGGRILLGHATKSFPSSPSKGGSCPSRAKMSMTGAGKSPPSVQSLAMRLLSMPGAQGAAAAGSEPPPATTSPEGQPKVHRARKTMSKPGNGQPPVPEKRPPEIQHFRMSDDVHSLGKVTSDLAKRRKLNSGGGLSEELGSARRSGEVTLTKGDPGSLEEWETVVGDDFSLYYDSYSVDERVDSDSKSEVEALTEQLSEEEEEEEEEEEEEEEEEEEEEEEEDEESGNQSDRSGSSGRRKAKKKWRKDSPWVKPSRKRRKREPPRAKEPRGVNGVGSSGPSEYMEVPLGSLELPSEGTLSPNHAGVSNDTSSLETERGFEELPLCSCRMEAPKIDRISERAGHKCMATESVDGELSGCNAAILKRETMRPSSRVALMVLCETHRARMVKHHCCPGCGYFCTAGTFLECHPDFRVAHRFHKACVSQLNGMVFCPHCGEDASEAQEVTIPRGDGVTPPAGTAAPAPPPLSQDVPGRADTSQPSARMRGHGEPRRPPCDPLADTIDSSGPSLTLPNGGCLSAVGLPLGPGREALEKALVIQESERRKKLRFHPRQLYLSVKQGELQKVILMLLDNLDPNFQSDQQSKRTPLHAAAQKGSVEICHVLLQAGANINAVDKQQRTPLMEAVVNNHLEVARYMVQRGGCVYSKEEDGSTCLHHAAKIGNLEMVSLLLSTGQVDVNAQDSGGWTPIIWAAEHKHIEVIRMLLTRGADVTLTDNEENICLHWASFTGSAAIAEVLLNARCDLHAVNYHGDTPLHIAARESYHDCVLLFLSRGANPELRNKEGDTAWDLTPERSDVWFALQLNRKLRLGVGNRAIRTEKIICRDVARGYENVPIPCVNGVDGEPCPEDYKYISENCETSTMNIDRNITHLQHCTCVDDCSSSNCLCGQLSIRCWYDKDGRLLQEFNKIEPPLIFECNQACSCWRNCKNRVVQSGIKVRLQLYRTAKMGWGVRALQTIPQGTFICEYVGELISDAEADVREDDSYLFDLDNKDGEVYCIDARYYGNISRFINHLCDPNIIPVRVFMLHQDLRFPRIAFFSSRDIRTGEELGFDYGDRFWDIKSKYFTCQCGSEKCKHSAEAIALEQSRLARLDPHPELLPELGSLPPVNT
Procedure, shortened: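 AlphaScreen read-out: biotin-H3K9 peptide (500 nM) methylation by 20 nM enzyme with 20 uM SAM, 2 h at room temperature after 15 min compound preincubation; anti-monomethyl H3K9 antibody plus donor/acceptor beads, 10 min dark.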
% is set by controls: 0 for no effect and ±100 for the full control effect; potency is the fitted concentration of half-maximal effect; tags give direction and shape of the fitted curve.

Question: `NC(=O)c1ccccc1OCC(=O)Nc1ccc2c(c1)OCCO2` was tested. Which Potency did it give?
Answer: inconclusive: 79.4 µM [inhibitor, partial curve, poor fit]

Question: For `NNC(=O)c1[nH]c2ccc([N+](=O)[O-])cc2c1-c1ccccc1`, which Potency is on record?
Answer: inconclusive: 89.1 µM [inhibitor, single point]

Question: For `CCCN(CCC)C(=O)/C=C/c1cccc([N+](=O)[O-])c1`, which “activity, negative = inhibition” value is on record?
Answer: inactive: 11.1% [at 102 µM]

Question: For `COc1ccc(C(=O)N2CCN(C(=O)c3ccco3)CC2)cc1OC`, which Potency is on record?
Answer: inconclusive: 6.31 µM [inhibitor, partial curve]

Question: How did the Potency turn out when `COc1ccc2nc(SCC(=O)N3CCN(c4ccc(F)cc4)CC3)c(C#N)cc2c1` was run?
Answer: inconclusive: 22.4 µM [inhibitor, single point]

Question: For `N#Cc1nc(COc2ccccc2F)oc1N1CCCCCC1`, which activity, negative = inhibition is on record?
Answer: inconclusive: -88.9% [inhibitor]

Question: How did the Potency turn out when `Cc1ccc(/C=N/Nc2ccc(Cl)c(C(=O)O)c2)s1` was run?
Answer: inconclusive: 6.31 µM [inhibitor, full curve, poor fit]

Question: Which “activity, negative = inhibition” value does the source give for `O=C(C1Cc2ccccc2CN1S(=O)(=O)c1ccc(F)cc1)N1CCOCC1` (stereo unspecified) here?
Answer: inactive: -1.48%

Question: Which Potency does the source give for `COc1cc(N2C(=O)C=CC2=O)c(OC)cc1Cl` here?
Answer: active: 2.51 µM

Question: With `COc1ccc(-c2noc(-c3ccoc3C)n2)cc1OC` as the compound, how does the Potency read?
Answer: inconclusive: 17.8 µM [inhibitor, full curve]

Question: How did the Potency turn out when `S=c1[nH]nc(COc2ccccc2)n1/N=C/c1ccccn1` was run?
Answer: inconclusive: 0.631 µM [inhibitor, full curve, poor fit]

Question: Which Potency does the source give for `O=C1CS(=O)(=O)C2(C(=O)N(Cc3cccc(F)c3)c3ccccc32)N1c1ccccc1` (stereo unspecified) here?
Answer: inconclusive: 20 µM [inhibitor, partial curve, poor fit]

Question: For `CCOc1ccc(NC(=O)COC(=O)c2cc(=O)c3ccccc3o2)cc1`, which Potency is on record?
Answer: active: 20 µM

Question: `COc1cccc(-c2ccc3ncnc(N4CCN(C)CC4)c3c2)c1` was tested. Which activity, negative = inhibition did it give?
Answer: inactive: 3.5% [at 0.501 µM]

Question: With `Cc1ccc(C)c(NC(=O)CSc2nc(=O)n(CCN3CCOCC3)c3c2CCCC3)c1` as the compound, how does the activity, negative = inhibition read?
Answer: inactive: 0.756% [at 0.501 µM]

Question: Which Potency does the source give for `CN(CC(=O)Nc1ccccc1C(F)(F)F)C(=O)C1CCN(S(=O)(=O)c2ccc3c(c2)OCCO3)CC1` here?
Answer: inconclusive: 44.7 µM [inhibitor, partial curve, poor fit]

Question: Which Potency does the source give for `N#CC(C#N)=C(N)CSc1cccc[n+]1[O-]` here?
Answer: inconclusive: 50.1 µM [inhibitor, partial curve]

Question: With `CCN(CC)c1nc(-c2ccc(C(C)(C)C)cc2)nc2ccccc12` as the compound, how does the “activity, negative = inhibition” value read?
Answer: inactive: 65.2%

Question: How did the Potency turn out when `FC(F)(F)c1cccc(N2CCN(Cc3ccoc3)CC2)c1` was run?
Answer: inconclusive: 35.5 µM [inhibitor, single point]

Question: `O=C(Nc1ccc(O)c2c(=O)cc(-c3ccccc3Cl)oc12)c1cccs1` was tested. Which “activity, negative = inhibition” value did it give?
Answer: inactive: 12.8%

Question: Which Potency does the source give for `Cn1cc(CC(=O)Nc2cccc(C#N)c2)c2ccccc21` here?
Answer: inconclusive: 28.2 µM [inhibitor, single point]

Question: Which “activity, negative = inhibition” value does the source give for `Cc1cc2cc(CNC(=S)Nc3ccc(OC(F)(F)F)cc3)ccc2[nH]1` here?
Answer: inactive: -2.27% [at 102 µM]

Question: `Cc1cccc(OCCCC(=O)Nc2sc3c(c2C(N)=O)CCC(C)C3)c1` (stereo unspecified) was tested. Which “activity, negative = inhibition” value did it give?
Answer: inactive: -6.2%

Question: Which “activity, negative = inhibition” value does the source give for `O=C(CSc1nc2nccnc2c(=O)n1CCc1c[nH]c2ccccc12)Nc1ccccc1F` here?
Answer: inactive: -1.63%

Question: How did the Potency turn out when `CS(=O)(=O)Nc1ccc(C(=O)CSc2nnc(C3CC3)n2C2CC2)cc1` was run?
Answer: inconclusive: 50.1 µM [inhibitor, partial curve]

Question: How did the Potency turn out when `COc1cc(NC(=O)c2ccc(C(C)(C)C)cc2)c(OC)cc1NC(=O)CN1CCCCC1` was run?
Answer: inconclusive: 8.91 µM [inhibitor, full curve]

Question: `CCOC(=O)c1c(C)[nH]c(C=Nc2ccc(OC)cc2)c1O` was tested. Which “activity, negative = inhibition” value did it give?
Answer: inactive: -8.67%

Question: Which Potency does the source give for `CCOc1cc(C2C(C(=O)OC(C)C)=C(C)NC3=C2C(=O)CCC3)cc([N+](=O)[O-])c1O` (stereo unspecified) here?
Answer: inconclusive: 56.2 µM [inhibitor, single point]

Question: With `CCOc1ccc(NC(=O)c2ccc(NC(=O)CCS(=O)(=O)c3cccs3)cc2)cc1` as the compound, how does the “activity, negative = inhibition” value read?
Answer: inactive: -3.47%

Question: How did the Potency turn out when `COc1cc(/C(C#N)=C/c2ccccc2)c([N+](=O)[O-])cc1OC` was run?
Answer: inconclusive: 20 µM [inhibitor, single point]

Question: Which Potency does the source give for `O=[N+]([O-])c1ccc(N/N=C2\CC3CC=CC23)cc1` (stereo unspecified) here?
Answer: active: 44.7 µM

Question: For `COc1ccccc1OC(C)C(=O)N1CCc2ccccc21` (stereo unspecified), which Potency is on record?
Answer: inconclusive: 1 µM [inhibitor, partial curve, poor fit]

Question: With `Cc1ccc(C)c(NC(=O)COC(=O)COc2cccc3c2OC(C)(C)C3)c1` as the compound, how does the Potency read?
Answer: inconclusive: 8.91 µM [inhibitor, partial curve]

Question: For `COc1cc(C2C3=C(CC(C)(C)CC3=O)OC(N)=C2[N+](=O)[O-])ccc1O` (stereo unspecified), which Potency is on record?
Answer: active: 50.1 µM

Question: With `CCN1C(=NCc2ccco2)N[C@@H](c2cccc(F)c2)C(C(=O)OC)=C1C` as the compound, how does the Potency read?
Answer: active: 39.8 µM

Question: Which “activity, negative = inhibition” value does the source give for `COc1cccc(/C=C/C(=O)OCC(=O)Nc2cccc(S(=O)(=O)N3CCOCC3)c2)c1OC` here?
Answer: inactive: 2.81% [at 102 µM]

Question: Which Potency does the source give for `OCc1cn(-c2ccccc2)nc1-c1ccco1` here?
Answer: inconclusive: 89.1 µM [inhibitor, single point]

Question: For `COc1ccc(C(CNC(=O)C(=O)NC2CCCCC2)N2CCN(C)CC2)cc1` (stereo unspecified), which “activity, negative = inhibition” value is on record?
Answer: inactive: -25.8%

Question: Which Potency does the source give for `Brc1ccc(-c2nnc3sc(CN4CCC5(CC4)OCCO5)cn23)cc1` here?
Answer: inconclusive: 31.6 µM [inhibitor, partial curve, poor fit]

Question: With `COc1cccc(NC(=O)CN(C)C(=O)c2ccccc2OCC(=O)Nc2cccc(C(F)(F)F)c2)c1` as the compound, how does the Potency read?
Answer: inconclusive: 89.1 µM [inhibitor, single point]

Question: Which Potency does the source give for `COC(=O)c1ccc(CSc2nc3c(c(=O)n2-c2ccc(Br)cc2)SCC3)o1` here?
Answer: inconclusive: 10 µM [inhibitor, partial curve, poor fit]

Question: For `COc1cc(C)c(CN2CCSCC2)cc1C`, which activity, negative = inhibition is on record?
Answer: inactive: -31.2% [at 0.501 µM]

Question: With `CCc1cccc2c1NC(=O)[C@]21[C@@H]2C(=O)N(Cc3ccccc3)C(=O)[C@@H]2[C@@H]2CCCN21` as the compound, how does the Potency read?
Answer: active: 44.7 µM

Question: With `O=C(NC(=S)NCCc1ccccc1)c1cccc(Cl)c1` as the compound, how does the “activity, negative = inhibition” value read?
Answer: inactive: -2.22% [at 102 µM]

Question: Which Potency does the source give for `COc1ccc(C(c2nnnn2Cc2ccccc2)N2CCN(C(=O)c3ccco3)CC2)cc1` (stereo unspecified) here?
Answer: active: 56.2 µM

Question: With `CCn1ccnc1CN1CCCC(C(=O)c2ccc3cc(OC)ccc3c2)C1` (stereo unspecified) as the compound, how does the Potency read?
Answer: inconclusive: 56.2 µM [inhibitor, partial curve, poor fit]
